Test results published in PubChem BioAssay AID2060625 (Molecular Pharmacology Branch, DTP, NCI, 2025).
Certain results were filed several times, with different values. This list holds those alone. An entry can have further records. The records of an entry are repeats (runs, samples, wells, individuals or studies). Brackets with × give the number of equal values in this list.

System: 186277-243-T-J2-PDC spheroids with HUVEC/MSC, viability
Assay: Anticancer human tumor 186277-243-T-J2-PDC patient-derived colon adenocarcinoma cell line growth inhibition [CLK]
Conditions: stronger effect = lower value
Text: A high-throughput screen of multi-cell type tumor spheroids was designed to identify active combinations of […] and targeted small molecules. Complex spheroids include a stromal component modeled by human endothelial cells (HUVEC) and fibroblasts modeled by human mesenchymal stem cells (MSCs). The concentration ranges selected for each drug and investigational agent were based upon clinically achievable concentrations if the clinical Cmax of the agent was known.
Compounds. The drugs and investigational agents: cirtuvivint (SM08502; NSC835563), CC-671 (NSC850746), vemurafenib (NSC761431), tapotoclax (NSC804041), sotorasib (NSC818433), adagrasib (NSC831453), MRTX-1133 (NSC836407), BAY2416964 (NSC825713), copanlisib (NSC816437), inavolisib (NSC800729), abemaciclib (NSC768073), osimertinib (NSC779217), entinostat (NSC756642), eltanexor (KPT-8602, NSC794443), venetoclax (NSC766270), ceralasertib (NSC777638), bortezomib (NSC756655), olaparib (NSC753686), talazoparib (NSC767125), alisertib (NSC759677), peposertib (NSC802822), gemcitabine (NSC613327), 5-fluorouracil (NSC19893), SN-38 (NSC673596), oxaliplatin (NSC266046), paclitaxel (NSC125973), and doxorubicin (NSC123127), were obtained from the National Cancer Institute (NCI) Developmental Therapeutics Program Chemical Repository. The FDA-approved anticancer drug set is available from the Developmental Therapeutics Program at https://dtp.cancer.gov/organization/dscb/obtaining/available plates.htm. […] The stock solutions were prepared in dimethyl sulfoxide (DMSO, Sigma-Aldrich, St. Louis, MO, cat. D2650), except for the platinum complexes which were prepared in saline (Quality Biological, Gaithersburg, MD, cat. 114-055-101), at 800-fold the tested concentration and stored at -70 degrees C prior to their use. All drugs and investigational agents were tested over a range starting from a high concentration at or near the clinical Cmax and decreasing in half-log increments. If the clinical Cmax for an agent had not been determined, the highest concentration tested was 10 microM.
Cell Culture. All cells were maintained in an incubator at 37 degrees C and 5% CO2 with 95% humidity. The PDC lines were cultured according to standard operating procedures established by the NCI PDMR. Briefly, all PDCs were thawed and cultured in Matrigel-coated flasks prepared with a working solution of 1X Ham's F-12 nutrient mix, without supplementation (Invitrogen, Waltham, MA, cat. 11765054), 100 U/mL penicillin-streptomycin (Invitrogen, cat. 15140122), and 2.5% Matrigel (Corning Inc., Corning, NY, cat. 354248) for the first three passages. […]
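Further: compound exposure lasted seven days before readout; 100% = DMSO vehicle control wells.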

SMILES | viability, T/C (compound alone 0.0316 µM) | viability, T/C (compound alone 0.1 µM) | viability, T/C (compound alone 10 µM)
CN1CCN(c2cc(C(=O)Nc3cc4cc(-c5cnn(C)c5)ccc4cn3)ccn2)CC1 | 85.7, 98.6, 110, 90.5, 94.9, 97.1, 98.5, 103, 83.2, 100, 107% | 80.5, 79.2, 71.4, 83, 80.7, 84.9, 71.1, 87.7, 79.4, 81.2, 98.2% | 
CNC(=O)c1ccc(Nc2nc(OC3CCCC3)c3c(-c4ccc5nc(C)oc5c4)c[nH]c3n2)c(OC)c1 | 112, 98.5, 102, 113, 101 (2×), 98, 124, 109, 106 (2×), 108% |  | 
C=C(F)C(=O)N1CCN(c2nc(OCC3CCCN3C)nc3c2CCN(c2cccc4cccc(Cl)c24)C3)CC1CC#N (centres undefined) |  |  | 35.8% and 2.73%
